The other results are listed elsewhere or left out. Cleavage of a single-stranded DNA pool by Rep nickase domains was read by sequencing (3 µM enzyme, 1 h, 37 °C); shown is the middle of each 90-letter strand. Uncut reads are compared with the no-enzyme pool on a log2 scale; more negative means more cut, near 0 not cut, and no call is made. Counts are relative to all reads, so uncut sequences can rise above 0 when many others are cut.
Assays:
Assay in all cases: uncleaved DNA left, log2 of reads against the no-enzyme library (log2 ratio); higher = less cleavage (more negative = more Rep cleavage of the k-mer); sequences stand for … in CTCGTCCG…ACCGGAGA
[1] = test system: T1, Rep nickase domain of Muscovy duck circovirus
T1 sequence (protein, residues 1-111, tag omitted): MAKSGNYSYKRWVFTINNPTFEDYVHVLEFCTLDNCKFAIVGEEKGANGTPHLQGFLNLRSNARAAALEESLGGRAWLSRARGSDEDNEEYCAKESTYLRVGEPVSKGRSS
Protocol: (§1)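 A pool of 90-nt single-stranded DNAs with seven random bases just before the constant AC of the nick site (name = the seven bases) was cut by 3 µM recombinant His6-SUMO-tagged Rep nickase domain (300 nM DNA, 50 mM HEPES pH 8.0, 50 mM NaCl, 1 mM MnCl2, 1 h, 37 °C, three replicates). Uncut DNA was amplified and sequenced.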

[2] = test system: T2, Rep nickase domain of banana bunchy top virus
T2 sequence (protein, residues 1-94, tag omitted): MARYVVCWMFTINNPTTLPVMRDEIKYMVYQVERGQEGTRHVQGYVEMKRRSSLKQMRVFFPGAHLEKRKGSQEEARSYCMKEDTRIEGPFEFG
Protocol: as §1

[3] = test system: T3, Rep nickase domain of cabbage leaf curl virus
T3 sequence (protein, residues 1-116, tag omitted): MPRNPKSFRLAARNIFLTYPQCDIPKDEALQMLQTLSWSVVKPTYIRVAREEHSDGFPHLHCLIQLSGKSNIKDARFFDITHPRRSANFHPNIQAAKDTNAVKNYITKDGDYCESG
Protocol: as §1

[4] = test system: T4, Rep nickase domain of chickpea chlorotic dwarf virus
T4 sequence (protein, residues 1-124, tag omitted): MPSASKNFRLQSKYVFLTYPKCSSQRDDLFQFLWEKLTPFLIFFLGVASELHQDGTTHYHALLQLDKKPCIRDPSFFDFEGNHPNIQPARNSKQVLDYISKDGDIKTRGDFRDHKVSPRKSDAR
Protocol: as §1

[5] = test system: T5, Rep nickase domain of faba bean necrotic yellows virus
T5 sequence (protein, residues 1-98, tag omitted): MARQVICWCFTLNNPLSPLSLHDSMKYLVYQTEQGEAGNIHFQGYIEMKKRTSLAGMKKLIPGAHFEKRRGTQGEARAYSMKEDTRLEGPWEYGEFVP
Protocol: as §1

[6] = test system: T6, Rep nickase domain of maize striate mosaic virus
T6 sequence (protein, residues 1-117, tag omitted): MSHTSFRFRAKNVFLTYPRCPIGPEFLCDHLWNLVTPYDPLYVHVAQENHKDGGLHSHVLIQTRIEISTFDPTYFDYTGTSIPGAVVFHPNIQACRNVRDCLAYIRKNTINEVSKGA
Protocol: as §1

[7] = test system: T7, Rep nickase domain of porcine circovirus 2
T7 sequence (protein, residues 2-116, tag omitted): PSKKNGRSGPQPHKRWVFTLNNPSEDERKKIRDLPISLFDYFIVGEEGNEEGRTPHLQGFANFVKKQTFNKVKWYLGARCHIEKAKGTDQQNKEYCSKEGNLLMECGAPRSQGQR
Protocol: as §1

[8] = test system: T8, Rep nickase domain of tomato yellow leaf curl virus
T8 sequence (protein, residues 1-136, tag omitted): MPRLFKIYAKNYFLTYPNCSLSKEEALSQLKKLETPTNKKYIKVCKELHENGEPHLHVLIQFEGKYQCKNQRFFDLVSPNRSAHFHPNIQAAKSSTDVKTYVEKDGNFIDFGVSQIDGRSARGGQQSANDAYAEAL
Protocol: as §1

[9] = test system: T9, Rep nickase domain of wheat dwarf virus
T9 sequence (protein, residues 1-137, tag omitted): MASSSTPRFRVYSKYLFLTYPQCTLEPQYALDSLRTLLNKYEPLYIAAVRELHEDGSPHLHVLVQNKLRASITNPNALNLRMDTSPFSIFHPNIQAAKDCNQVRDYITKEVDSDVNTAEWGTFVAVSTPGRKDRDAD
Protocol: as §1

Row | Sequence | uncleaved DNA left (log2) [1] | uncleaved DNA left (log2) [2] | uncleaved DNA left (log2) [3] | uncleaved DNA left (log2) [4] | uncleaved DNA left (log2) [5] | uncleaved DNA left (log2) [6] | uncleaved DNA left (log2) [7] | uncleaved DNA left (log2) [8] | uncleaved DNA left (log2) [9]
1 | CGCCTTT | 0.00358 | 0.12 | -0.0592 | -1.2 | 0.16 | -0.154 | -0.232 | -0.00619 | -0.0174
2 | ATGGTGG | -0.101 | -0.228 | -0.267 | -0.209 | -0.209 | -0.845 | 0.0788 | -0.202 | -0.205
3 | CCATAAC | 0.0453 | -0.103 | -0.4 | -1.79 | 0.0563 | -0.973 | 0.083 | 0.00359 | -0.331
4 | TTAGTTC | 0.000431 | -0.173 | 0.126 | -0.981 | 0.0569 | -0.302 | -0.0939 | 0.0334 | -0.138
5 | TCCAGTC | -0.137 | -0.241 | -0.0783 | -0.493 | -0.0662 | -1.04 | -0.0797 | -0.204 | -0.33
6 | AACCTGA | 0.174 | 0.0528 | 0.272 | 0.179 | 0.145 | 0.83 | 0.0817 | -0.0356 | 0.131
7 | CAACAGC | 0.122 | 0.113 | -0.255 | -0.9 | 0.159 | -0.828 | 0.307 | 0.0714 | 0.155
8 | TACCGCC | -0.067 | -0.128 | -0.224 | -1.08 | -0.061 | -0.947 | -0.305 | -0.0593 | -0.0885
9 | GAGAGGG | 0.137 | 0.169 | 0.131 | 0.507 | 0.232 | 0.195 | 0.235 | 0.0647 | 0.124
10 | ATTCAAG | 0.0511 | 0.0114 | -0.742 | -0.3 | 0.087 | -1.13 | 0.167 | 0.0185 | 0.0297
11 | CGTTTAC | 0.0602 | 0.106 | 0.0876 | -0.867 | 0.131 | -0.229 | 0.124 | 0.0612 | 0.0621
12 | CAAGCTG | -0.0404 | 0.0641 | 0.347 | 1.46 | 0.0195 | 1.68 | 0.101 | -0.0995 | 0.0224
13 | GTATACC | -0.0211 | 0.0192 | 0.249 | 0.66 | -0.0258 | 1.39 | -0.0109 | 0.0291 | 0.102
14 | TTGACGT | 0.179 | 0.141 | -0.195 | -0.178 | 0.0567 | -0.566 | 0.158 | 0.123 | 0.125
15 | ATGATGC | 0.1 | 0.0821 | -0.423 | -0.39 | 0.0275 | -1.08 | 0.24 | 0.137 | 0.0868
16 | TTCTTTT | -3.22 | -0.268 | -0.611 | -2.5 | -0.107 | -0.4 | -3.1 | -0.0332 | -0.115
17 | ACAAGTG | 0.00443 | 0.0207 | -0.594 | -0.223 | 0.107 | -0.998 | 0.206 | 0.0414 | -0.0254
18 | CGTCAGG | -0.0553 | 0.0653 | 0.168 | 0.686 | 0.0379 | 0.467 | 0.107 | 0.0187 | 0.131
19 | GCATTGA | -0.0259 | -0.0199 | -0.348 | -0.334 | 0.0204 | -0.89 | 0.0217 | 0.0523 | -0.107
20 | CCGAAAC | 0.107 | -0.12 | 0.0799 | -0.125 | 0.0427 | -0.467 | 0.0664 | -0.0232 | 0.0186

Row | Sequence | uncleaved DNA left (log2) [1] | uncleaved DNA left (log2) [2] | uncleaved DNA left (log2) [3] | uncleaved DNA left (log2) [4] | uncleaved DNA left (log2) [5] | uncleaved DNA left (log2) [6] | uncleaved DNA left (log2) [7] | uncleaved DNA left (log2) [8] | uncleaved DNA left (log2) [9]
21 | ATCCCTA | -0.0632 | -0.00857 | -0.0502 | -0.882 | 0.152 | -0.375 | -0.145 | -0.065 | -0.0761
22 | TGGCGAG | -0.0046 | -0.2 | -0.133 | 0.316 | -0.133 | -0.246 | 0.0131 | -0.0536 | -0.0627
23 | CAGATAC | 0.0773 | -0.124 | -0.219 | -0.361 | -0.0689 | -0.781 | 0.0281 | -0.0883 | -0.0132
24 | TTGTTTT | -3.06 | -1.03 | 0.0365 | -1.73 | -0.577 | -0.388 | -3.18 | 0.0101 | -0.238
25 | ATCAGCG | -0.000352 | -0.02 | -0.401 | 1.09 | 0.0435 | 0.241 | 0.0716 | -0.0449 | -0.146
26 | GTGCTAG | -0.0614 | -0.164 | -0.417 | -0.23 | 0.0276 | -0.796 | 0.0373 | 0.0452 | -0.103
27 | GGTGTAG | 0.12 | 0.0872 | 0.0247 | 0.264 | 0.118 | -0.199 | 0.164 | 0.0795 | -0.0204
28 | GGCCTAT | -0.127 | -0.0472 | 0.504 | 1.31 | -0.0055 | 1.91 | -0.0586 | 0.038 | 0.113
29 | GCTCAGT | 0.108 | 0.0471 | 0.0731 | 0.287 | 0.065 | 0.0366 | 0.114 | 0.142 | 0.0302
30 | ATCGCCG | 0.014 | -0.0675 | -0.806 | -0.131 | 0.0121 | -0.915 | 0.0818 | -0.0478 | -0.158
31 | TGAAACC | 0.0329 | 0.194 | 0.413 | 0.325 | 0.0786 | 0.945 | -0.391 | 0.167 | 0.178
32 | CCCACGG | -0.0783 | -0.102 | 0.421 | 1.33 | 0.0511 | 1.77 | -0.0552 | -0.181 | -0.0257
33 | CGGCGGG | 0.0414 | -0.0606 | -0.039 | 0.154 | 0.129 | 0.342 | 0.222 | -0.138 | -0.0345
34 | CGCGTGA | -0.119 | -0.279 | -0.258 | -0.293 | -0.212 | -0.345 | -0.0497 | -0.254 | -0.199
35 | AGCCCCT | -0.0167 | -0.133 | 0.186 | 0.345 | -0.14 | 1.37 | -0.174 | -0.0233 | -0.0862
36 | CGCAGGG | -0.0308 | 0.0773 | -0.0131 | 0.326 | 0.158 | -0.357 | 0.204 | -0.0334 | 0.0292
37 | AAAGGGA | -0.0228 | 0.0323 | 0.243 | 1.15 | 0.068 | 1.21 | 0.119 | -0.0885 | 0.0446
38 | AAATTGC | 0.0236 | 0.0435 | -0.653 | 0.542 | 0.128 | -0.232 | 0.167 | 0.128 | -0.0123
39 | CCGCATT | -0.0521 | -0.093 | -0.167 | -1.28 | -0.116 | -0.395 | -0.613 | -0.0543 | -0.121
40 | TGCTTAG | 0.191 | -0.101 | -0.501 | -0.454 | 0.109 | -1.12 | 0.13 | 0.00149 | 0.0338
